Results published in PubChem BioAssay AID1963576 (National Center for Advancing Translational Sciences (NCATS), 2024).
Among all 46,000 compounds or so, about 60 (0.1%) were called active. Inconclusive results (about 3%) are left out. The call rests on the fitted dose curve; in most records, active means well fitted inhibition curve with a large enough effect; inconclusive means small, poorly fitted or top-dose-only effect; inactive means no such curve, though single readings can be large or run the other way. The list shows a part of the results.

Assay: Primary qHTS assay for Inhibitors of ovarian cancer metastasis using an organotypic tumor microenvironment (TME) model. Further: nearly all actives have a fitted effect of over 65% in size.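 On activity change, negative = inhibition: plate controls were DMSO wells for no effect and tomatine positive control wells for full effect.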
Details: SKOV3ip1-GFP adhesion/invasion on 3D omental model, fluorescence; series mostly up to 45.8 µM; activity change, negative = inhibition: at the top concentration
Procedure, shortened: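 qHTS, 4-pt dose (0.36-46 umol/L); SKOV3ip1-GFP, 1,200 cells/well, no FBS; primary omental fibroblast/mesothelial co-culture 48 h pre-grown; 2 h RT + 16 h 37 C; PBS wash, 4% PFA; GFP count 488/509 nm.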

Activity change, negative = inhibition, inactive:
O=C(NCC(c1cccnc1)N1CCOCC1)C(=O)Nc1ccc(F)cc1 (stereo unspecified) 2.57%
O=C(Cn1c(=O)n(-c2ccc(F)cc2)c(=O)c2sc3ccccc3c21)NC1CCCCC1 5.14%
CCCOc1ccc(Nc2cc(C)nc(C)n2)cc1 1.84%
CCc1ccccc1Nc1cc(C(=O)NCCc2ccccc2)c2ccccc2n1 -3.37%
COc1ccc(C(=O)Oc2c(Sc3ccccc3)c(C)nn2-c2ccccc2)cc1OC -3.13%
COCCCNS(=O)(=O)c1ccc(N2CCCCS2(=O)=O)cc1 -4.15%
COc1ccc(-c2coc3c2c(C)cc2oc(=O)c(C)c(C)c23)cc1 7.81%
CC1CCC(Nc2ncnc3onc(-c4ccc(Cl)cc4)c23)CC1 (stereo unspecified) -2.51%
CCN(CCO)CCCOc1ccc2c(Nc3cc(CC(=O)Nc4cccc(F)c4)[nH]n3)ncnc2c1 7.26%
CC(=O)OCc1cnc(C)c2oc(=O)c(C(=O)Nc3ccc(C)cc3Cl)cc12 -0.242%
Cc1ccccc1NC(=O)CSc1nc2ccc(NC(=O)c3ccccc3)cc2s1 -2.66%
Cc1cccc(OCC(=O)Nc2ccc3nc(Nc4cccc(C(F)(F)F)c4)cc(C)c3c2)c1 -3.89%
Cc1ccc(CNC(=O)c2oc3ccc(S(=O)(=O)N4CCC(C)CC4)cc3c2C)cc1 -2.11%
COc1ccccc1CNC(=O)c1ccc2c(c1)N(Cc1cc(C)ccc1C)C(=O)c1ccccc1S2 3.12%
CCCCNC(=O)c1cc2c(=O)n3cccc(C)c3nc2s1 -0.319%
CC(=O)c1cc(-c2ccccc2)n(CCC(=O)Nc2ccc(C(C)C)cc2)c1C -6.35%
Cc1ccc(-n2ncc(C(=O)N3CCN(Cc4ccccc4)CC3)c2C2CCN(C(=O)OC(C)(C)C)CC2)cc1 0.409%
CCOc1ccc(NC(=O)Cn2cc(C(=O)c3ccc(F)cc3)c(=O)c3cc4c(cc32)OCCO4)cc1 0.308%
COc1ccc(-c2cc(C(F)(F)F)n3nc(C(=O)O)c(Cl)c3n2)cc1OC 2.49%
CC(C)(C)OC(=O)N1CCC(c2c(C(=O)NCCN3CCCC3)cnn2-c2ccc(Cl)cc2)CC1 -5%
CCOc1ccc(/C=C/c2nc(C#N)c(NC3CCCCC3)o2)cc1 8.25%
Cc1oc(-c2ccc(C(=O)NCc3ccc(F)cc3)cc2)nc1CS(=O)c1ccccc1 (stereo unspecified) -7.84%
CC(C)c1ccc(NC(c2nnc(-c3ccccc3)o2)c2ccc(F)cc2Cl)cc1 (stereo unspecified) 5.96%
COc1ccccc1-c1nnc(SCC(N)=O)o1 -1.31%
COc1ccccc1OCCn1c(C(C)Oc2ccccc2)nc2ccccc21 (stereo unspecified) 3.55%
CC(=O)c1cc2c(cc1N/C(=N/S(=O)(=O)c1ccccc1)c1ccc(Cl)cc1)OCO2 -29.1%
CCN(CC)CCNc1ncnc2c1cnn2-c1cc(Cl)ccc1C -11.3%
CCNc1nc(N)nc(Oc2ccc(OCC(=O)OC)nn2)n1 -2.19%
CCOc1ccc(-c2nc(CNC(=O)NC3CCCCC3)c(C)o2)cc1 1.97%
Cc1ccc(N2CC(C(=O)NCCS(=O)(=O)N3CCN(c4ccccc4)CC3)CC2=O)cc1C (stereo unspecified) -35.6%
Cc1ccc(C)c(Nc2nn3c(=O)c4ccc(C(=O)NCCC5=CCCCC5)cc4nc3s2)c1 10.2%
O=C(CCc1ccccc1)N(Cc1cccnc1)c1nc2c(F)cc(F)cc2s1 -4.56%
Cc1ccc(C)c(NC(=O)N(C)CCc2c(C)nn(C)c2C)c1 1.61%
CCOc1ccc(OCc2ccc(C(=O)Nc3cc(OC)c(OC)c(OC)c3)o2)cc1 -1.58%
CC(C)c1ccc(-c2noc(SCC(=O)N3CCN(c4ccc(F)cc4)CC3)n2)cc1 15.9%
COc1ccc(CCNS(=O)(=O)c2cc(-c3cc(C)no3)ccc2OC)cc1OC -0.526%
Cc1cccc2nc(-c3ccc(N(C)C)cc3)c(Nc3ccc4c(c3)OCO4)n12 -2.52%
COc1ccc(CCNc2nc3ccc(Cl)cc3n3cnnc23)cc1OC -5.12%
O=C(NCCc1csc(-c2ccc(Cl)cc2)n1)c1ccco1 -1.16%
COc1cccc(CNC(=O)CSc2nc(=O)[nH]c3c2CCC3)c1 3.14%
CCCN(C(=O)C(=O)Nc1ccc2nc3n(c(=O)c2c1)CCCCC3)c1ccc(OCC)cc1 7.43%
COc1cc(NC(=O)c2cc(Cl)ccc2Cl)ccc1NC(=O)c1cc2ccccc2o1 1.57%
CCOC(=O)c1ccccc1NC(=O)Cn1c(=O)n(CCC(=O)N2CCc3ccccc3C2)c(=O)c2ccccc21 2.91%
Cc1cccc(C(c2sc3nc(-c4ccco4)nn3c2O)N2CCN(Cc3ccccc3)CC2)c1 (stereo unspecified) 1.17%
COc1ccccc1-c1nnc(C2CCN(C(=O)c3cccc(Cl)c3)CC2)o1 2.52%
Cc1ccccc1NC(=O)Cn1c(=O)n(CCCCCC(=O)NCc2ccccc2Cl)c(=O)c2sccc21 -25.8%

outcome, inactive:
CCOC(=O)c1ccc2c(c1)N(Cc1cccc(C(F)(F)F)c1)C(=O)c1ccccc1S2(=O)=O
COc1ccc(N2CCN(Cc3cc(=O)oc4ccc(OC)cc34)CC2)cc1
COc1ccccc1NC(=O)C1=C(C)Nc2nc3ccccc3n2C1c1cccc(Br)c1 (stereo unspecified)
Cc1ccc(NC(=O)CN2C(=O)CSc3ccc(S(=O)(=O)N4CCCC4)cc32)c(C)c1
COc1ccc(CCNC(=O)C2CCN(c3nc4ccccc4nc3C(F)(F)F)CC2)cc1OC
COc1ccc(NC(=O)C2=C(C)C(=O)OC23CCN(C(C)C)CC3)cc1Cl
CCCCN1C(=O)CN(C2CCCCCC2)C(=O)C1c1ccc(OC(C)C)c(OC)c1 (stereo unspecified)
Cc1ccc(-n2ccnc(NCCc3ccc(S(N)(=O)=O)cc3)c2=O)c(C)c1
COc1ccc(NC(=O)Cn2cnc3ccc(S(=O)(=O)N4CCC(C)CC4)cc3c2=O)cc1Cl
CCN(CC)CCNC(=O)c1ccc(-c2nc(CS(=O)(=O)c3ccc(C)cc3)c(C)o2)cc1
Cc1cc(C)cc(C(=O)Nc2c(C(=O)Nc3ccccc3F)oc3ccccc23)c1
CCOc1ccccc1C(=O)Nc1cccc2ccc(C)nc12
COc1cc(C2CC(=O)c3c([nH]c(C(=O)OCc4ccc(C)cc4)c3C)C2)cc(OC)c1OC (stereo unspecified)
Cc1ccc(NC(=O)/C=C/c2ccc(Cl)cc2)c(Br)c1
CCS(=O)(=O)N1CCc2cc(C(=O)NCc3ccc(Cl)cc3)ccc21
